Whole data set: some 33,000 sequences, median “E-score (-0.5 to 0.5)” near -0.012, cut for the highest 2% near 0.27. The list shows a part of the results.

This is an account of results in the supplement of paper PMC3334620.

The assay concerns the target T1, Vhr1 (UniProt P40522).
T1 sequence: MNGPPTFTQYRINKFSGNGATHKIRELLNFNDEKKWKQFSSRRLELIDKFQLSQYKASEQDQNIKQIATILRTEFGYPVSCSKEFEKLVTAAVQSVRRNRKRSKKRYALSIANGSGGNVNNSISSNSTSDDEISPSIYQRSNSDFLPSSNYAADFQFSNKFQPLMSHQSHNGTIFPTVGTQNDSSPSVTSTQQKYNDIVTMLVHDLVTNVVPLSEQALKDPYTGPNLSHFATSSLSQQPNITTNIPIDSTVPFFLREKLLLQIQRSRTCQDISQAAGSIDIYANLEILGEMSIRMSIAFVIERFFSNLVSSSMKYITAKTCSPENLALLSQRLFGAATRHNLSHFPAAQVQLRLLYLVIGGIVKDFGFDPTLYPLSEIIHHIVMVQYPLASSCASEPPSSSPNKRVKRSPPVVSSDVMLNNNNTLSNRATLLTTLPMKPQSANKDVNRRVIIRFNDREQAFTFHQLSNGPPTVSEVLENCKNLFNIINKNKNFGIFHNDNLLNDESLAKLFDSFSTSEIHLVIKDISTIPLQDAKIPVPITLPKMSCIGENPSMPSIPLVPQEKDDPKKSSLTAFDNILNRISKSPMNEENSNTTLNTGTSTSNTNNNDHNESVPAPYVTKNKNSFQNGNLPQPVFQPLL
Briefly: PBM E-score (8-mer binding enrichment) (E-score (-0.5 to 0.5)); higher = stronger / more preferred TF binding; most listed sequences are background and not binding sites. The following applies: protein concentration: 200 nM; construct: GST-full length. The method, boiled down: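 Universal all-10-mer Agilent arrays, fresh or stripped once, were converted to double-stranded form by primer extension. GST-tagged yeast transcription factors from PURExpress in vitro transcription/translation, full-length or DNA-binding domain only, were applied at about 100-200 nM and detected with fluorescent anti-GST. After masliner normalisation, the Universal PBM Analysis Suite scored each ungapped eight-base word together with its reverse complement by E-score.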
Turning to CAGCTCGC, the “PBM E-score” value came out at 0.113. Turning to AGTTGAAT, the “PBM E-score” value turned out to be 0.0869. Take AAAGAGCT: the “PBM E-score” value was -0.205. Turning to AATTTCTC, the “PBM E-score” value was -0.127.

Take TCCACCAA: the “PBM E-score” value came out at 0.0925. ATGGACTG: the “PBM E-score” value is -0.0399. On to CTGAAAGC, for which the “PBM E-score” value is 0.0431. On to AGTGGCAA, for which the “PBM E-score” value was -0.0529. With ATAAGTCG, the “PBM E-score” value turned out to be 0.0638.

As to AACCCTCC, the “PBM E-score” value is -0.129.

Take GGGTAGGA: the “PBM E-score” value was -0.108. As for CTAAAGGA, the “PBM E-score” value was -0.156.

With CCGAACGG, the “PBM E-score” value is -0.0149.

As for CTCCACAA, the “PBM E-score” value came out at 0.167.

Take GCCCAAAA: the “PBM E-score” value is -0.158. As to ATTTTTTG, the “PBM E-score” value was -0.193. As to CGTGCGCC, the “PBM E-score” value stood at 0.102. For ATGTGCGA the value was 0.0627; for GCGGATAC, 0.221; for ATTGGTCC, -0.0847. For the sequence CACCAAGA, the “PBM E-score” value worked out at 0.0345. Consider ATGGCGGA, for which the “PBM E-score” value was -0.0276.

As to AACGTTGG, the “PBM E-score” value was determined as 0.0188.

As for AGGAGACT, the “PBM E-score” value is 0.0194.

Turning to CACGCTCA, the “PBM E-score” value stood at 0.137. ATCGCACG: the “PBM E-score” value is -0.0779.

Regarding GAGCGATC, the “PBM E-score” value is -0.132.

Regarding TCGGCAAA, the “PBM E-score” value is -0.101. For AAGCGCGA, the “PBM E-score” value was found to be 0.0906. For the sequence GACATAGC, the “PBM E-score” value was -0.149. The value for CTTCCATC was -0.0671; that for GATCTTGC was 0.0151; that for CGACCAGA was 0.0575. For ATCAGTTG the value was 0.209. The value for ATAACCCC was 0.0677; that for CAGTACTA was 0.167; that for CCGTGTAC was 0.141.

Consider ACCAAGGA, for which the “PBM E-score” value worked out at 0.0223. Take ATCGGGGC: the “PBM E-score” value is -0.182. For AATAGACT, the “PBM E-score” value was found to be 0.102.

On to ACTCTCCC, for which the “PBM E-score” value stood at 0.194. Turning to AATTCCTC, the “PBM E-score” value is -0.0821. Turning to CCTATATC, the “PBM E-score” value is 0.0207. For GTCGTGGA the value was -0.0253; for ACATGAGT, 0.279.

For ACTTGAGC, the “PBM E-score” value was -0.154.

GATTTTAC: the “PBM E-score” value is -0.0634. For GACGAAGC the value was -0.047; for GGAACGAC, -0.138; for CATCCCCC, -0.0872. The value for CGTCCGAC was -0.142; that for ATATAGTA was 0.202; that for GCCGCGAA was -0.125. In the case of CTAATAGA, the “PBM E-score” value worked out at 0.032. For ACAAGACC, the “PBM E-score” value was -0.231. With AAGTAGAA, the “PBM E-score” value was -0.177. The value for ACCAGGAG was 0.00869; that for CGAAATAG was -0.166; that for CTCGAAGC was -0.156. Take TCTGCGCA: the “PBM E-score” value is -0.115. As for CTCATAAG, the “PBM E-score” value amounted to 0.145. For AGAGGTAC the value was -0.183; for CGGGGGAG, -0.0972. In the case of TGCACTAA, the “PBM E-score” value stood at 0.0186. As to AGATTCGG, the “PBM E-score” value was -0.0676. The value for AGCACATC was 0.228. With GACGGATA, the “PBM E-score” value worked out at 0.104.

ATCGCTTA: the “PBM E-score” value was -0.193.

Consider TCCGATAA, for which the “PBM E-score” value was -0.193. As to AGTGGATA, the “PBM E-score” value is 0.0901. For GAGTATGA the value was 0.228; for ACTATTGA, 0.261. Take CTGAATAA: the “PBM E-score” value came out at 0.0438. With TAATTATA, the “PBM E-score” value turned out to be 0.223. As to GGCGAAGA, the “PBM E-score” value is -0.152. AGACGGGG: the “PBM E-score” value is 0.012. The value for GTCGTTAA was -0.257; that for CCCAAAAC was 0.0767; that for AGCCCCTC was 0.0759.

As for CATTATGA, the “PBM E-score” value turned out to be 0.0974.

CACTAGTG: the “PBM E-score” value came out at 0.0929.

For the sequence CCAGCTTC, the “PBM E-score” value came out at 0.0649.

As to CGCACTAC, the “PBM E-score” value was -0.0416. The value for CCCCTACG was -0.139; that for CACGGTAG was -0.0365; that for ACCACTTG was -0.00054.
